The list shows a part of the results.

The assay has as its system PfAP2-HC AP2 domain (GST-tagged). In words: gcPBM binding intensity (ln(normalized median fluorescence intensity)); higher = stronger DNA binding. In a few lines:
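For binding intensity, the highest Masliner-normalised natural-log median intensity across replicate spots of either probe orientation was taken. Protein bound to the array was stained with Alexa488 anti-GST antibody and scanned at 488 nm. The protein, GST-tagged P. falciparum DNA-binding domains from E. coli at about 25 μg on average, had been applied for 1 h to an Agilent 4 × 180k array of primer-extended double-stranded 36-bp intergenic genomic probes and negative controls.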
For “ATTTATTTTCTGTGTACACATATGTTGGGTATTTTA [CACACA_site5902]”, the “gcPBM binding intensity (ln)” value amounted to 9.89. Under “GTATATATCCCAAAATGTACATAATTTATTATTTAT [XGTACX_site2842]” stands 9.7; under “ATAGGTAAAAAGTATACACACGTTGACACATTCTTT [CACACA_site4794]”, 9.81. For the sequence “AAATAATACAAGGGCTGTACATAAAAAGGAGTATAT [XGTACX_site839]”, the “gcPBM binding intensity (ln)” value is 10.

For ATTTTAAAAAGGATAGTGCAAATGTTAAAATAGGAC, the “gcPBM binding intensity (ln)” value came out at 10.3. Then “GAAAATTTAAAAAGAGTGCATTATATGTTTGAATAT [GTGCAC_site9564]”, with 9.59. Under “CTTTTTTTCTTTCCAAGTACTAAATTCATACAAATT [XGTACX_site2605]” stands 9.59; under “AATAAAATAATAAAAGCACACAAGAATACACCCAAA [CACACA_site7919]”, 10.6. Turning to “TTTAACGAATAAAAATGTACAAATTTATACATTTAT [XGTACX_site2805]”, the “gcPBM binding intensity (ln)” value came out at 9.44.

Turning to “CAAAAGGATGTGGGATGTACATATGAAAAAAAAAAA [XGTACX_site8059]”, the “gcPBM binding intensity (ln)” value was 9.58. Then “TTTTATTTATAATACTCACACATTTATATTACATAT [CACACA_site6000]”, with 9.99; and “GGTCTTTTTTTCAAAAGTACATAAATAAAAAAGGTT [XGTACX_site2894]”, with 9.38; and “TTGTATGTAAAAAAGTGTACATGAGTGATTATATAA [XGTACX_site8166]”, with 9.72. Then “TAAATTTAAAAATCTGCACACATTTAAAAAAAAAAA [CACACA_site2515]”, with 9.77; and “ATTACTAAAAAATATAAACACACATATATTTTACAT [CACACA_site8633]”, with 9.88. Under “AATAAATGGAATGTCACACATATATATATATATATA [CACACA_site4869]” stands 9.95; under “ATTATTTAAAAAAAATGTACATAATAAATATGAACG [XGTACX_site4010]”, 9.58; under “AGTGTATGTATATAAACACACATACATATTTATAAC [CACACA_site6777]”, 10.1.

Consider “AAAAAAAAGAAAGAAAGTACAAATTATAAAATGAAC [XGTACX_site860]”, for which the “gcPBM binding intensity (ln)” value is 9.79. Under “TAAATTAAAAAACACACACACAAAAAAAAAAAAAAA [CACACA_site2263]” stands 11.2. Under “ATTTCTAAATGTTGGTGTACGTTTTTTTATAACCTT [XGTACX_site1752]” stands 9.93. Then “GGAAAACACAAAAACTGTACATTTATTCAACATATA [XGTACX_site5831]”, with 9.71. As for “TATATACATATATACACACACATATATATATATATA [CACACA_site2805]”, the “gcPBM binding intensity (ln)” value is 10.1. As for “TTGATATTATTGTATAAACATAATAGAGATAAAGAG [TGCATGCA_negctrl_site455]”, the “gcPBM binding intensity (ln)” value came out at 9.82. Then “CAGGTGCACTATATTACACACGCTTCTTTTTTTTTA [CACACA_site2069]”, with 9.94; and “TACAAAAAAATAAATAATAAAAAAAAATATATATAA [XGTACX_negctrl_site344]”, with 9.59; and TGAAGGATATATTCCGTGCACATATAAATATATACA, with 9.58. Then “AACATGTTAACTAAATGTACACACCTATGTTGATGT [XGTACX_site3777]”, with 9.93; and “TTCTTTATTTTTTCTACACACATTATGTATTCAAAG [CACACA_site3527]”, with 9.98; and “TGAAAGAACCTGATTACACACATAAGTTATAAATAT [CACACA_site6165]”, with 9.87. Then “TGAAAGAATGTTAATAGTACACACAATTATTATATA [XGTACX_site7936]”, with 9.79.

“TAAGAACTATTCAGTAGTACCTATATGGATTACTAA [XGTACX_site4278]”: the “gcPBM binding intensity (ln)” value turned out to be 9.46. Under “ATTGATATTGTATAATGTACAGGAAAAAAAAAAAAA [XGTACX_site526]” stands 9.6; under “AAATAAAGATATATATATATATATATATATAATTTT [CACACA_negctrl_site30]”, 9.75. For the sequence “AAAATGTGCATATTTGCACACTTCAATATATATATA [CACACA_site1791]”, the “gcPBM binding intensity (ln)” value is 9.89. Then “AAATATTTTGCATACACATGCAAATATTTTTTACAT [TGCATGCA_site554]”, with 9.59; and “AATATAAAAAGGCACACACACAAAAAAAAAAAAAAA [CACACA_site896]”, with 10.3; and “AATCTCAGAATATACTGTACTTTAAGAAAAAAAAAA [XGTACX_site110]”, with 9.26. Then “AATATATATTTGTGTACACATTATATATATATATAT [CACACA_site6103]”, with 9.8; and “AAAATTTAAATAGGAAGTACGTTCACTAAGAAAATA [XGTACX_site6546]”, with 9.75; and “ATAATTTAAAAACATTGTACATTAATATATATGTAT [XGTACX_site8970]”, with 9.65. Then “AGGATATGCGGACACACACACATATATATATATATA [CACACA_site5247]”, with 11; and “ATAATAACTGATAAATGTACATATAAATTTTATGAT [XGTACX_site195]”, with 9.8; and TTTTATATTTTAAGAGTGCATTTTATATCTTTTTCT, with 9.57.

Take “GAAAATATTAAATGAAGTACAATATTTATGTTACTT [XGTACX_site8737]”: the “gcPBM binding intensity (ln)” value is 9.48. Then “TTTATATTTCTTCATCGTACACATAAAAAAAAAAAA [XGTACX_site3244]”, with 9.24; and “ATACTCACGAAACACACACACAATATATATATATAT [CACACA_site4136]”, with 10.1. Under “CATTAAATATATAAATGTACAAATATATTTTTCAAA [XGTACX_site4429]” stands 9.38.

In the case of “TTGTTCATATTTTTTATTGTGTTAATATTTATAAAA [GTGCAC_negctrl_site423]”, the “gcPBM binding intensity (ln)” value is 9.51. Then “TTAATGTAGAGAAAATGTACATTTTATTAAAACAAT [XGTACX_site6376]”, with 9.77; and “CCTATTTATAAATACACACACATATATAAATAAATA [CACACA_site5629]”, with 10.1; and “AAAAAACTATTATGTGCATGCACAAGTCAGGTAAAT [TGCATGCA_site791]”, with 9.93. Under “AAAAAGAAATCCAATACACACCTTCAAAATGGGTAT [CACACA_site4978]” stands 9.81; under “TATTTATAGATATATACACACATATTTATATTTATA [CACACA_site6441]”, 9.78; under “TTTTTTATTTTTGCGTGTACATAATAATGAATCTTC [XGTACX_site8077]”, 9.56.

In the case of “GAAATTTCCCATATTACACACATACTATGATATATA [CACACA_site5987]”, the “gcPBM binding intensity (ln)” value is 10. Then “TTTTAAATATATGTGCTATTATATTAAGAGATGTAA [GTGCAC_negctrl_site560]”, with 9.29. Then “ATCTATAAATTTCCACGTACATATATATATATATAT [XGTACX_site4502]”, with 9.83; and “CCTCTTTTTATTCTCACACACGTTTATATATAAAGT [CACACA_site4992]”, with 10.1. Then “TTATAAATGTATTTATGTACATATAAATATATATAA [XGTACX_site2970]”, with 9.36; and “AAAAGAAAATAAGAAACACACAAAAATATATAAAAA [CACACA_site3697]”, with 9.99; and “TTCTTTGCTTTTCAAACACACAAAAGTTATTATATT [CACACA_site521]”, with 9.89. For “ATATAAATCAAAAACGCACACATAAATATTTATATA [CACACA_site2442]”, the “gcPBM binding intensity (ln)” value came to 9.95.

As for “ATAAAAGAATAAATAAAACACATATATATATATATA [XGTACX_negctrl_site31]”, the “gcPBM binding intensity (ln)” value was found to be 9.47. Under “TTTTTTTTTTTTTTGGTGCACATAGAAATTCTAAAA [GTGCAC_site9809]” stands 9.22; under “GCACATTTTTTTATCACACATATAATTACAATATAA [CACACA_site5585]”, 9.75. Then “TACGTATGCCTGTGATGTACATATATATATACATAC [XGTACX_site4728]”, with 9.9. Then “TTTCGGTTTTTTTTTATTTTTTTTTTTTTATTATTT [CACACA_negctrl_site335]”, with 9.65; and “AAAAGATGCGCATACACACAGATGAATAACAAAAAA [CACACA_site6865]”, with 10.1.

“ATAATATAATTTTGCAGTACCCAAAAAACAAAATAA [XGTACX_site4827]”: the “gcPBM binding intensity (ln)” value amounted to 9.62.

Take “AATATGATATATATATGTACATATATATAATATAAT [XGTACX_site3072]”: the “gcPBM binding intensity (ln)” value came to 9.68. Then “AAAGTATAATAATACACACACTTTAAAAGTTAAATG [CACACA_site7550]”, with 10.4; and “ATATAGGTAAAAAGTATACACACGTTGACACATTCT [CACACA_site1199]”, with 9.88. Then “TCATTATATCATGGTAGTACTCATTAATAATACGTA [XGTACX_site8701]”, with 9.51; and “AATATTATTTAGGAGCGTACGTTTTATTTACATATT [XGTACX_site5188]”, with 9.78.

Take “TATATATTTTTTAAACCACACACAATATAGAGTATA [CACACA_site8106]”: the “gcPBM binding intensity (ln)” value worked out at 9.9.

“GTTAATAAAAATATATGTACATAATTATTATGAAAA [XGTACX_site3030]”: the “gcPBM binding intensity (ln)” value came to 9.63. Under “GGCATAAATATATGCACACACAAAAAAAAAAAAAAA [CACACA_site59]” stands 9.85; under “TTTTTTTTTTTAAAAAGTACACAATTAATTAATATA [XGTACX_site8494]”, 9.28; under “ATATTGTTTTATATAGAACACACATAAAAATATATA [CACACA_site8314]”, 9.75. Turning to “TTATTGAAAAAAGAACAAAAAAAAAAAGAAAAATTA [XGTACX_negctrl_site438]”, the “gcPBM binding intensity (ln)” value is 9.23. Then “TATAAACATTATAAATGTACAAATATATATATATAT [XGTACX_site3218]”, with 9.73; and “ATATATATATATATATGTACTTATTTGAATACTAAA [XGTACX_site2330]”, with 9.57. Regarding “AAAATAAGAAATAGATGTACTTATAAATAAATACAA [XGTACX_site4441]”, the “gcPBM binding intensity (ln)” value came out at 9.64. Under “TGACTATGTATATTTAGTACATAAAATCAATAATAT [XGTACX_site4082]” stands 9.55; under “AAGGGTTGCCTGTGTAGTACATATATATATATATAT [XGTACX_site8555]”, 9.96; under “TCATTCATAAAAATAACACACAAAAAAAAAAAAAAA [CACACA_site1800]”, 9.62. For the sequence “AAATTATATTATTGAACACACGTTTGGTAATGTTTT [CACACA_site5469]”, the “gcPBM binding intensity (ln)” value came out at 9.71. Under “AAATATAAGAAAAAGGTGCTTTTTTTTTTTTTTTTT [GTGCAC_site9700]” stands 9.55.

The record behind these values is the supplement of paper PMC11417369.
